# Assay results reported in PubChem BioAssay AID1508624 (National Center for Advancing Translational Sciences (NCATS), 2021).
# The whole screen tested about 48,000 compounds, of which about 120 (0.25%) were called active. Another 4% or so got no clear call; they are omitted. Calls come from the whole dose curve; as a rule, active = well fitted activation curve with a large enough effect; inconclusive = small, poorly fitted or top-dose-only effect, or another doubt; inactive = no such curve, though single readings can be large or run the other way. Some of the results follow.
# Assay: Primary qHTS for Identification of Small Molecule Activators of Huntingtin-Antisense Promoter Activity; note: nearly all actives have a fitted effect of over 55% in size
# Conditions: HEK293 HTT-AS promoter firefly luciferase reporter, 24 h; series mostly up to 57.5 µM; activity change, positive = activation: at the top concentration
# Method in brief: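 Firefly luciferase readout (Dual-Glo, 10 min RT) after 24 h, 37 °C compound exposure (final up to 57.5 uM) of HEK293 reporter cells cultured 24 h beforehand; PTC124 at 50 uM final as control inhibitor; activity scaled vehicle 0%, zero RLU -100%.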
row,Compound,"activity change, positive = activation"
1,NS(=O)(=O)c1cc(C2(O)NC(=O)c3ccccc32)ccc1Cl (stereo not given),inactive: 0.733%
2,O=C(C1COc2ccccc2O1)N1CCN(c2nc3c(F)cccc3s2)CC1 (stereo not given),inactive: 6.16%
3,COc1ccc(N(CC(=O)NCc2ccccc2Cl)S(=O)(=O)c2c(C)[nH]c(=O)[nH]c2=O)cc1,"inactive: 7.59% [at 11.5 µM, percent change from vehicle, -100% = no light]"
4,COCCNC(=O)C1CCC(CNS(=O)(=O)c2ccc3c(c2)CC(C)N3C(C)=O)CC1 (stereo not given),inactive: -20.8%
5,COc1cc(C(CC(=O)Nc2ccc(Br)cn2)N2Cc3ccccc3C2=O)cc(OC)c1OC (stereo not given),inactive: -22.9%
6,Cc1c(C(=O)Nc2cccc(F)c2)oc2c1-c1nn(Cc3c(F)cccc3Cl)cc1CC2,inactive: -14.1%
7,CN(C)c1ccc(CNC(=O)CN2C(=O)c3cccnc3Oc3ccc(Cl)cc32)cc1,inactive: -1.26%
8,Cc1nn(CC(=O)NCc2cccc(Br)c2)c(=O)c2c1sc1ccccc12,inactive: 6.21%
9,Cc1cc(C)c(S(=O)(=O)NCCc2cc3cc(C)c(C)cc3[nH]c2=O)c(C)c1,inactive: -7.11%
10,O=S(=O)(NCCc1nnc2ccc(SCc3ccc(C(F)(F)F)cc3)nn12)c1ccccc1,inactive: -24.4%
11,CCOc1ccccc1NC(=O)CSc1nc2c(oc3ccccc32)c(=O)n1C(C)C,inactive: -2.22%
12,COCCCNC(=O)c1cc(-c2ccc(OC)cc2)nc2n[nH]c(-c3ccc(Cl)cc3)c12,inactive: -10.4%
13,Cc1c(C(=O)Nc2ccc(F)cc2F)oc2ccc3c(c12)C(=O)CC(C)(C)O3,inactive: -60.6%
14,COc1ccc(CCNC(=O)c2cnc3ccc(C)cn3c2=O)cc1OC,inactive: 17.1%
15,Cn1ncc2c(NCc3ccc(Cl)cc3)ncnc21,inactive: -6.29%
16,Cc1ccc(CNC(=O)c2c(O)nc3ccccn3c2=O)cc1,inactive: -7.78%
17,Cc1ccc(Cn2c(=O)n(CC3CCC(C(=O)N4CCC(C)CC4)CC3)c(=O)c3sccc32)cc1 (stereo not given),inactive: -14.7%
18,CC(C)(C)c1cnc(CSc2cnc(NC(=O)C3CCNCC3)s2)o1,inactive: -43%
19,Cc1ccc(N(Cc2cccs2)C(=O)Nc2cccc(Cl)c2)cc1,inactive: -11.9%
20,Cc1c(Cl)cccc1NC(=O)NCc1c(-n2cccc2)sc2c1CCCC2,inactive: 0%
21,Cc1oc2c(c1C(=O)Nc1ccccc1Br)C1=NCCN1C=N2,inactive: 5.45%
22,COc1cccc(CNC(=O)c2sc3nc4n(c(=O)c3c2C)CCC4)c1,inactive: 8.59%
23,O=C(NCCc1cccs1)c1ccc(Cn2c(SCc3ccccc3)nc3cccnc32)cc1,inactive: 11%

row,Compound,"activity change, positive = activation"
1,CCOc1ccccc1NC(=O)Cn1cnc2c1c(=O)n(C)c(=O)n2C,inactive: -15.4%
2,COc1ccc(N2CC3=C(C2=O)C(c2ccc(O)c(OC)c2)NC(=O)N3C)cc1 (stereo not given),inactive: -0.703%
3,CCOC(=O)c1ccccc1NC(=O)c1cc2c(s1)-c1c(C)cccc1OC2,inactive: -4.75%
4,O=C(Nc1nc2ccc(F)cc2s1)c1nc(SCc2ccccc2F)ncc1Cl,inactive: 0%
5,O=C(CN1C(=O)COc2ccc(S(=O)(=O)N3CCOCC3)cc21)Nc1ccc(F)c(Cl)c1,inactive: -21.3%
6,Cc1c(Cl)cccc1NC(=O)C1CCCN(C(=O)c2cnn(-c3ccccc3)c2-n2cccc2)C1 (stereo not given),inactive: -42.6%
7,COc1cc(OC)c(N(C)C(=O)c2cn(C)c(=O)c3cc(OC)c(OC)cc23)cc1Cl,inactive: -15.7%
8,O=C(NCCc1ccc(Cl)cc1)C(=O)NCC(c1ccc2c(c1)OCO2)N1CCOCC1 (stereo not given),inactive: 0.204%
9,CC(C)c1c(C(=O)Nc2ccccc2)c(-c2ccccc2)c(-c2ccc(F)cc2)n1CC[C@@H](O)C[C@@H](O)CC(=O)O,inactive: -3.52%
10,O=C(Nc1cc(C(F)(F)F)ccc1Cl)c1cc(-c2cccs2)nc2ccccc12,inactive: 18.6%
11,Cc1cc(C)c(S(=O)(=O)NCCc2sc(-c3cccnc3)nc2C)c(C)c1,inactive: -19.8%
12,Cc1cc(S(=O)(=O)Nc2cc3c(cc2Cl)n(C)c(=O)c(=O)n3C)ccc1F,inactive: -20.3%
13,Cn1c(=O)c2cc(C(=O)N3CCN(c4cccc(C(F)(F)F)c4)CC3)sc2c2ccccc21,inactive: -14.8%
14,CON(C)C(=O)N1N=C(c2cc(F)ccc2F)S[C@]1(CCCN)c1ccccc1,inactive: -30.1%
15,CCOC(=O)c1cc(-c2ccc(OC)cc2)n(CCC(=O)NCc2ccccc2OC)c1C,inactive: -18.7%
16,Cc1ccsc1CN(Cc1ccco1)C(=O)c1ccc(Cl)cc1,inactive: -20.1%
17,Cc1ccc(C)c(N2CCN(S(=O)(=O)c3ccc(-c4cc(C(F)(F)F)on4)s3)CC2)c1,inactive: -16.9%
18,Cc1cc(=O)c2c(O)c3c(O)cc(=O)c4c3c3c(cc(O)c1c23)C(C)(C)C=4O,inactive
19,CCOC(=O)C1=C(CS(=O)(=O)c2ccc(C(C)(C)C)cc2)NC(=O)NC1c1cccc(OC)c1 (stereo not given),inactive: -37.9%
20,Cc1cccc(NC(=O)CSc2nnc3[nH]c(=O)cc(C)n23)c1C,inactive: -7.41%
21,COc1ccc(N2CCN(C(=O)c3cnc(SC)nc3C)CC2)cc1,inactive: 1.1%
22,COc1ccc(-c2cc3c(=O)n(CC(=O)Nc4ccc(Br)c(C)c4)ccn3n2)cc1OC,inactive: 13.6%
